Data taken from paper PMC3380004.
Results are given in words; binding and its absence hold for the method and conditions named. In cells and extracts the contact can be indirect. Some entries that bind do so weakly or less than the wild type. For part of these data: Tags and fused reporters may be left off the sequences shown. Values belong to the molecule of their own block, whether it stands above or below them.

By UniProt entry, the sequences of proteins in these tests, tags left out. Where a name states a change or a piece, a line headed by the entry shows the natural chain unless it says otherwise. Chains listed by the source or under a name are the forms on record and can include a tag or linker. Residues count along the entry.
UniProt Q9EPN1: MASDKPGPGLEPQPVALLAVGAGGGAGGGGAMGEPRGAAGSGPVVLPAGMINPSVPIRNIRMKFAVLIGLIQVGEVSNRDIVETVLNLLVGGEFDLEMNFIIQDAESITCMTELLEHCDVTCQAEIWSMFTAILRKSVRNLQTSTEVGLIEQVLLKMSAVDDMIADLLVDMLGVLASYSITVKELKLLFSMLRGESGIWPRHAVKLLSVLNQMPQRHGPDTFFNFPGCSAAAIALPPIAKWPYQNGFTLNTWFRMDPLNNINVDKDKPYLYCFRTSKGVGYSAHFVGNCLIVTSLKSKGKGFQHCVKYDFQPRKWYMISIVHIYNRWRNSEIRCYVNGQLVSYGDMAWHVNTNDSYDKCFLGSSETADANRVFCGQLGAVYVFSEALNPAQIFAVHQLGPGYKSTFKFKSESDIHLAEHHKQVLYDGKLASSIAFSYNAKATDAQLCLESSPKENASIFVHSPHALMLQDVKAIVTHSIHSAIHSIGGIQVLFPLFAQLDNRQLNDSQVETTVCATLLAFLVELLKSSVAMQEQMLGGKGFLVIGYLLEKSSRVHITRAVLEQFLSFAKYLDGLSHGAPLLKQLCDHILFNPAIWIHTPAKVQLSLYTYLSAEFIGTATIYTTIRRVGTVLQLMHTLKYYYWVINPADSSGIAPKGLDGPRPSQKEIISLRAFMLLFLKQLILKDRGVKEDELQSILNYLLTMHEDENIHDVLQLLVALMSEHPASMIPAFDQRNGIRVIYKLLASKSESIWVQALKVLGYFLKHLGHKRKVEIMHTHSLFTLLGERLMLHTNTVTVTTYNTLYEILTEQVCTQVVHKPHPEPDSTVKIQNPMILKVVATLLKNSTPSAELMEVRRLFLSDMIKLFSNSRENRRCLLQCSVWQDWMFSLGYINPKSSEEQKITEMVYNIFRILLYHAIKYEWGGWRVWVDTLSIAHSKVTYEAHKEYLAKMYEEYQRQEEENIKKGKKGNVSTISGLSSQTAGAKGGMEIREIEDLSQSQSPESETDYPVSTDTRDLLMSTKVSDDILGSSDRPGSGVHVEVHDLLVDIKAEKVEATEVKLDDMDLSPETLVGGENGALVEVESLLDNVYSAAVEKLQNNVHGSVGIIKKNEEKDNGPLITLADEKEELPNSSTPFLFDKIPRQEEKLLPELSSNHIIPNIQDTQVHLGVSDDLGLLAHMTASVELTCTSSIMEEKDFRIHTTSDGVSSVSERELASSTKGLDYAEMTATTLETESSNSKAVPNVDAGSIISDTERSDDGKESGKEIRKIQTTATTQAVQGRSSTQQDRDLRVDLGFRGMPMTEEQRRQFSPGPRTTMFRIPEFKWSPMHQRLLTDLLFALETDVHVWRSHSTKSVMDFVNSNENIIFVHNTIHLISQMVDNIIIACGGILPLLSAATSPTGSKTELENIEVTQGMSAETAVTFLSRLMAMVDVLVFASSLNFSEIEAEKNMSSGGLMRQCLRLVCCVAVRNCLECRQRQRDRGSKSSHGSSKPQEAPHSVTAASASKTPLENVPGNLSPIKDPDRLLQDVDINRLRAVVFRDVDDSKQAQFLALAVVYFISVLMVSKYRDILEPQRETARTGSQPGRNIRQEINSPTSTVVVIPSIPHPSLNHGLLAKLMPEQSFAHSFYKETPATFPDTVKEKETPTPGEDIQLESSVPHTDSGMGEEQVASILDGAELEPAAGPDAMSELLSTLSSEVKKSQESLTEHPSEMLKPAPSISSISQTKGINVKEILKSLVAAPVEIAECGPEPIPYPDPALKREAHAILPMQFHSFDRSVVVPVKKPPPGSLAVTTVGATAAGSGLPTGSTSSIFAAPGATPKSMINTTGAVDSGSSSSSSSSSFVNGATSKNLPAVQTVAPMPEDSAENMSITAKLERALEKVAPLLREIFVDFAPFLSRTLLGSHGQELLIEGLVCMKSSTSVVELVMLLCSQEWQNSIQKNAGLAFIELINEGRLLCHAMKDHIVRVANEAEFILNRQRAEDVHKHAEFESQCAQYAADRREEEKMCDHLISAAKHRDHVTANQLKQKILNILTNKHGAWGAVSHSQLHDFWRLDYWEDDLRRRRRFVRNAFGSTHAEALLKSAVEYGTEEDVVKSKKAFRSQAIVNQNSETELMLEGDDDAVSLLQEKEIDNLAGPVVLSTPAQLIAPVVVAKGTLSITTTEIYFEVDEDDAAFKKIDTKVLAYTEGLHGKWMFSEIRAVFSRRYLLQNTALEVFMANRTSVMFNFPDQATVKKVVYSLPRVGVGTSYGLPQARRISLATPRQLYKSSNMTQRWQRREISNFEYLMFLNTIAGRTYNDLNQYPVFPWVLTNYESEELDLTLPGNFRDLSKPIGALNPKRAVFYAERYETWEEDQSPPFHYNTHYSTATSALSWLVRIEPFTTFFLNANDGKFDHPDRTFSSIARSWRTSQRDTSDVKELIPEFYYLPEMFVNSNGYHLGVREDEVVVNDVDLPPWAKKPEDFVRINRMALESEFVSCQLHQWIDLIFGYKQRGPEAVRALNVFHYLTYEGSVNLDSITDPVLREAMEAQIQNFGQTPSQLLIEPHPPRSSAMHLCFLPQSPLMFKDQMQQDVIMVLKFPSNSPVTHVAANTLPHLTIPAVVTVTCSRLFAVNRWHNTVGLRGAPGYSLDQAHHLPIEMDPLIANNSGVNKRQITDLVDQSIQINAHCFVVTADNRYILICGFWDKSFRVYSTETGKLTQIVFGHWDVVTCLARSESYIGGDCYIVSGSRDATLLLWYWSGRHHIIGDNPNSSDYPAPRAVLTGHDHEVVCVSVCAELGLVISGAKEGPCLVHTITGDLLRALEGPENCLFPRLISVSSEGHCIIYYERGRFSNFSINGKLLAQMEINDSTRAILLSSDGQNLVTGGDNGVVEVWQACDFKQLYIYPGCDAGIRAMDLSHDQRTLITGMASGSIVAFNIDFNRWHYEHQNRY
GFP-Duf, PH, BEACH, WD40: residues 1956-2936 of Q9EPN1
GFP-BEACH: residues 2264-2553 of Q9EPN1
C-terminal part of Nbea (Duf, PH, BEACH, WD40) fused to GFP, E2090K (Q9EPN1-1, form named): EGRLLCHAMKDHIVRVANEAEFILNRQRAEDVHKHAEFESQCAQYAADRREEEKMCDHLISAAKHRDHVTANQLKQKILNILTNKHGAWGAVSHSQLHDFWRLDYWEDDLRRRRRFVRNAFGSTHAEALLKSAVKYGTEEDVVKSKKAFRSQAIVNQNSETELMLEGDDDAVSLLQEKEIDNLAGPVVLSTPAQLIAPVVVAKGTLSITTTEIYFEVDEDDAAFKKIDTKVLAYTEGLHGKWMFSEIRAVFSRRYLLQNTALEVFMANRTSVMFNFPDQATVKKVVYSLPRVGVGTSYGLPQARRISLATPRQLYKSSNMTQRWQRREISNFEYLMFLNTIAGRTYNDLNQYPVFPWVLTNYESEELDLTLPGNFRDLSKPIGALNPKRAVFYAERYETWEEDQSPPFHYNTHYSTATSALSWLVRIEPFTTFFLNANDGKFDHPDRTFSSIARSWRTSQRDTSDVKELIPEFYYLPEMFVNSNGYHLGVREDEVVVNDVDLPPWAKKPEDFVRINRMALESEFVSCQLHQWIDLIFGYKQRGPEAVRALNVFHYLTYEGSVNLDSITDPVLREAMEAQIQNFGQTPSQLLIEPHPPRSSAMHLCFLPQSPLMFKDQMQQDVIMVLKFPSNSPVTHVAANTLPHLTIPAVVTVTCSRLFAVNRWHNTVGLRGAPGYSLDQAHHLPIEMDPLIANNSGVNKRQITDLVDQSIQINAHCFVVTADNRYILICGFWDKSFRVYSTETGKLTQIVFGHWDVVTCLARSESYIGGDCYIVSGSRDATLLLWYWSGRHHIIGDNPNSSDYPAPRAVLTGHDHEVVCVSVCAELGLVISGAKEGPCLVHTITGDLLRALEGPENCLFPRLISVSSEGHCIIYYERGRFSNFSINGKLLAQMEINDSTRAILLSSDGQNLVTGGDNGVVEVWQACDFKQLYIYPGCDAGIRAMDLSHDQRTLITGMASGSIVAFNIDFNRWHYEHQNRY
C-terminal part of Nbea (Duf, PH, BEACH, WD40) fused to GFP, E2218R (Q9EPN1-1, form named): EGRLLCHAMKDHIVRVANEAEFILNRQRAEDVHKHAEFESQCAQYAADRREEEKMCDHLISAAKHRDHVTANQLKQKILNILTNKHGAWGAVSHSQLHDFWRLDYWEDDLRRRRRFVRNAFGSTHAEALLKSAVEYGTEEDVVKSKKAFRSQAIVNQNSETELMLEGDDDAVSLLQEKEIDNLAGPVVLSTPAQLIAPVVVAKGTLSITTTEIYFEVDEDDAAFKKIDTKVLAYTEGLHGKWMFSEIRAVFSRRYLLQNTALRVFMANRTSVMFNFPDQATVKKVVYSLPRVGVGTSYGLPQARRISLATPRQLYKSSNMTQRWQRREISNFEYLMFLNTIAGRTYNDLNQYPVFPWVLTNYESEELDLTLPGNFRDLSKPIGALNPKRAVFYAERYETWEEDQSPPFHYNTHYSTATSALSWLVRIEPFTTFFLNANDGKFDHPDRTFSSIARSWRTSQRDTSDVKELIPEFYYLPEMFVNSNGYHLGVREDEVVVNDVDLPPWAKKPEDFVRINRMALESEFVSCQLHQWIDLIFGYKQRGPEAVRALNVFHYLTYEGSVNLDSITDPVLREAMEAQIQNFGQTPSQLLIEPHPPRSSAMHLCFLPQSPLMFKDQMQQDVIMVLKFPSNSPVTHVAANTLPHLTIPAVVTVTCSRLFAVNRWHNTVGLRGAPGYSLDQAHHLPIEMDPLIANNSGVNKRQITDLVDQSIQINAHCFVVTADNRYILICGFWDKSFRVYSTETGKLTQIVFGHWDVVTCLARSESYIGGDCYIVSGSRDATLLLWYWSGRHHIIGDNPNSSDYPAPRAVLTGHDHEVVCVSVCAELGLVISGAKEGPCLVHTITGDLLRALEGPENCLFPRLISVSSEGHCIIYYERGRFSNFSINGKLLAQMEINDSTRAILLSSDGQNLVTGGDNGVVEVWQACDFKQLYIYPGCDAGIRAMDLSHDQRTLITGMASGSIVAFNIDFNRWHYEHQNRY
C-terminal part of Nbea (Duf, PH, BEACH, WD40) fused to GFP, E2447R (Q9EPN1-1, form named): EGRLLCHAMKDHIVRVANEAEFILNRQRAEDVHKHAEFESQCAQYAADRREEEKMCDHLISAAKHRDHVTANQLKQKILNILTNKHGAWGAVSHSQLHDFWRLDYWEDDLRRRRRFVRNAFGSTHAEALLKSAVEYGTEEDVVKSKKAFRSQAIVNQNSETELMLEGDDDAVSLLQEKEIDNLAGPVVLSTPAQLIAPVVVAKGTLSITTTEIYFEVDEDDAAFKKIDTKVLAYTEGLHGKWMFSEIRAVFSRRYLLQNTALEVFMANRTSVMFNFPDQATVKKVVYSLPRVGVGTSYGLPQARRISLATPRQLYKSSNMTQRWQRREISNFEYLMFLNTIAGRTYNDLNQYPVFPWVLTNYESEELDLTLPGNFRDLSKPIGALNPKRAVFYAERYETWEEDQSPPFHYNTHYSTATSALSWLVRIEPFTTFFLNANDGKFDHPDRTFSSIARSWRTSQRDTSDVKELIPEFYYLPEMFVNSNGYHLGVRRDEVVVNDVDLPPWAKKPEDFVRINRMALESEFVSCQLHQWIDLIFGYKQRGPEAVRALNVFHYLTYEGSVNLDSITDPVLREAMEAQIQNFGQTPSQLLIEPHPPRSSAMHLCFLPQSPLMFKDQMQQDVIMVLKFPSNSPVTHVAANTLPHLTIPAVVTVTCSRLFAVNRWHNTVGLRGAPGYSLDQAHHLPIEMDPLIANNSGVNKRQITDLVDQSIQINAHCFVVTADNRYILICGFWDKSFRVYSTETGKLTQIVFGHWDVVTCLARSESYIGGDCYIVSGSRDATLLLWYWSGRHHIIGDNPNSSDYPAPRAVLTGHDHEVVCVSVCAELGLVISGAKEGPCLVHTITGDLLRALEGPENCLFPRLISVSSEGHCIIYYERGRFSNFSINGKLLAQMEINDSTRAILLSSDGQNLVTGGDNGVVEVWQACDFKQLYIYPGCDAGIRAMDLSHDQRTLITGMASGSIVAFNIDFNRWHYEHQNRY

Legend:
[1] = target: T1, Discs large homolog 3, Synapse-associated protein 102 (mouse (endogenous in mouse brain)) (UniProt P70175); test: co-IP; reverse IP with two α-SAP102 antibodies (NeuroMab N19/2; GenScript rabbit polyclonal) from the P2+M fraction of P84 WT mice; immunoblot with α-Nbea and α-SAP102; control empty beads
T1 sequence: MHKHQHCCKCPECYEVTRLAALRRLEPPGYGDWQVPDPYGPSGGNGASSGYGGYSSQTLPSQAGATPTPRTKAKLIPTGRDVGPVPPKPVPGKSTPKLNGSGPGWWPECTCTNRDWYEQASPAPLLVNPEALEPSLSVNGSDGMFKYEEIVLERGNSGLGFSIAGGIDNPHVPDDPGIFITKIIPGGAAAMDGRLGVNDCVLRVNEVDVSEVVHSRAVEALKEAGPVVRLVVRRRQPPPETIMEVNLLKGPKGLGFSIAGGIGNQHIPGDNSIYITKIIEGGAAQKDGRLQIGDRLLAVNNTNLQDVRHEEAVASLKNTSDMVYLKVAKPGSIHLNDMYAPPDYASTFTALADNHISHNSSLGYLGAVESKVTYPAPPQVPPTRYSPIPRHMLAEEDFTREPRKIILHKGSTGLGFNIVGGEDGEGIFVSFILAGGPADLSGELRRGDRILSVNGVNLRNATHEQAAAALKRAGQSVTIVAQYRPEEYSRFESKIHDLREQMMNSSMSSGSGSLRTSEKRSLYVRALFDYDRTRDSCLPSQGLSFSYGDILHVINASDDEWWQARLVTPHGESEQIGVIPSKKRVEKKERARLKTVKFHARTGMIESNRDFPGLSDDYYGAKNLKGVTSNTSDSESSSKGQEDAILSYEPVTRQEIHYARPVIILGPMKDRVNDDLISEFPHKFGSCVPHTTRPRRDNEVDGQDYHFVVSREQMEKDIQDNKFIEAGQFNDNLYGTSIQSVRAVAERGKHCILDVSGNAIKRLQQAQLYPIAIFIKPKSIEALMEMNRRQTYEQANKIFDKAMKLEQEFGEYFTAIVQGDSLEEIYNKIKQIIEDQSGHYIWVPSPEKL

[2] = target: T2, FLAG-tagged SAP102 (mouse) (UniProt P70175); test: co-IP; lysates of co-transfected HEK293T cells (50 mM Tris pH 7.5, 1% Triton X-100, 1.5 mM MgCl2, 5 mM EDTA, 100 mM NaCl); IP with α-GFP, α-FLAG or α-Nbea antibody on Protein A agarose, 2 h, 4°C; immunoblot
T2 sequence: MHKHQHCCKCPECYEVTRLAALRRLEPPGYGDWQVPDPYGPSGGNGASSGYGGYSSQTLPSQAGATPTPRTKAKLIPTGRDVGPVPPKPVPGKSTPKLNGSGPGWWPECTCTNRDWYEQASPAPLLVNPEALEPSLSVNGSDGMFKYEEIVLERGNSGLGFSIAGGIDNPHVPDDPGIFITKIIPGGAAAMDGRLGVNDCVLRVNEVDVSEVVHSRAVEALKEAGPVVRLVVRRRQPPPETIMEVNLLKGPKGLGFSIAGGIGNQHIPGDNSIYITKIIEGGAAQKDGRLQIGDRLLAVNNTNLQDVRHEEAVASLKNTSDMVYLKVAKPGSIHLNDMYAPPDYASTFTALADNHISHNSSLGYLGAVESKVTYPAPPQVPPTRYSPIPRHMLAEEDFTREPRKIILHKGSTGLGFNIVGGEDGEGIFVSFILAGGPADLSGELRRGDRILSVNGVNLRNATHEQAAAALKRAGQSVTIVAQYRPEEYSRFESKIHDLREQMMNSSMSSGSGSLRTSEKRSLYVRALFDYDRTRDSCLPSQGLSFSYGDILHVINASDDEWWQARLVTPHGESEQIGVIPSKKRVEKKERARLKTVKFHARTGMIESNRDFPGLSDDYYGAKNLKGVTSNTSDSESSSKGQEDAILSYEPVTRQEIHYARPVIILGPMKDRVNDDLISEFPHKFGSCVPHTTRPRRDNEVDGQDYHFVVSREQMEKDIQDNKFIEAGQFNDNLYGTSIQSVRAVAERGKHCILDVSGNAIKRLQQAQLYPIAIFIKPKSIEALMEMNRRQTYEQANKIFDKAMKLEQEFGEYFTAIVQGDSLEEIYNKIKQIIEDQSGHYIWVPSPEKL

[3] = target: C-terminal part of Nbea (Duf, PH, BEACH, WD40) fused to GFP, E2090K (mouse) (UniProt Q9EPN1); test: as above
[4] = target: C-terminal part of Nbea (Duf, PH, BEACH, WD40) fused to GFP, E2218R (mouse) (UniProt Q9EPN1); test: as above
[5] = target: C-terminal part of Nbea (Duf, PH, BEACH, WD40) fused to GFP, E2447R (mouse) (UniProt Q9EPN1); test: as above
[6] = target: C-terminal part of Nbea (Duf, PH, BEACH, WD40) fused to GFP, N2302A (mouse) (UniProt Q9EPN1); test: as above
[7] = target: C-terminal part of Nbea (Duf, PH, BEACH, WD40) fused to GFP, P2499S (mouse) (UniProt Q9EPN1); test: as above
[8] = target: C-terminal part of Nbea (Duf, PH, BEACH, WD40) fused to GFP, V2346Q (mouse) (UniProt Q9EPN1); test: as above
[9] = target: C-terminal part of Nbea (Duf, PH, BEACH, WD40) fused to GFP, V2773I (mouse) (UniProt Q9EPN1); test: as above
GFP-BEACH (mouse) = GFP-BEACH (mouse) (UniProt Q9EPN1); test: as above
[10] = target: GFP-Duf, PH, BEACH, WD40 (mouse) (UniProt Q9EPN1); test: as above
[11] = target: full-length Nbea-YFP (mouse) (UniProt Q9EPN1); test: as above

binding [1]: binds
Molecule: Neurobeachin (from UniProt Q9EPN1-1 1-2936)

binding [2]: binds
Molecule: full-length Nbea-YFP (from UniProt Q9EPN1-1 1-2936)

binding [3]: binds
binding [4]: no binding
binding [5]: binds
binding [6]: binds
binding [7]: binds
binding [8]: binds
binding [9]: binds
binding (GFP-BEACH (mouse)): no binding
binding [10]: binds
binding [11]: binds
B1: FLAG-tagged SAP102 (protein, UniProt P70175 1-849)
chain: MHKHQHCCKCPECYEVTRLAALRRLEPPGYGDWQVPDPYGPSGGNGASSGYGGYSSQTLPSQAGATPTPRTKAKLIPTGRDVGPVPPKPVPGKSTPKLNGSGPGWWPECTCTNRDWYEQASPAPLLVNPEALEPSLSVNGSDGMFKYEEIVLERGNSGLGFSIAGGIDNPHVPDDPGIFITKIIPGGAAAMDGRLGVNDCVLRVNEVDVSEVVHSRAVEALKEAGPVVRLVVRRRQPPPETIMEVNLLKGPKGLGFSIAGGIGNQHIPGDNSIYITKIIEGGAAQKDGRLQIGDRLLAVNNTNLQDVRHEEAVASLKNTSDMVYLKVAKPGSIHLNDMYAPPDYASTFTALADNHISHNSSLGYLGAVESKVTYPAPPQVPPTRYSPIPRHMLAEEDFTREPRKIILHKGSTGLGFNIVGGEDGEGIFVSFILAGGPADLSGELRRGDRILSVNGVNLRNATHEQAAAALKRAGQSVTIVAQYRPEEYSRFESKIHDLREQMMNSSMSSGSGSLRTSEKRSLYVRALFDYDRTRDSCLPSQGLSFSYGDILHVINASDDEWWQARLVTPHGESEQIGVIPSKKRVEKKERARLKTVKFHARTGMIESNRDFPGLSDDYYGAKNLKGVTSNTSDSESSSKGQEDAILSYEPVTRQEIHYARPVIILGPMKDRVNDDLISEFPHKFGSCVPHTTRPRRDNEVDGQDYHFVVSREQMEKDIQDNKFIEAGQFNDNLYGTSIQSVRAVAERGKHCILDVSGNAIKRLQQAQLYPIAIFIKPKSIEALMEMNRRQTYEQANKIFDKAMKLEQEFGEYFTAIVQGDSLEEIYNKIKQIIEDQSGHYIWVPSPEKL
